Measurements reported in PMC12390733.
These are yes or no findings as the source states them, for the method shown. Binding seen in cells or lysates may run through a third protein. Some binding calls cover weakened binding; strength is not graded here.

Protein sequences, listed by entry. Tags and fused reporters are not part of them. Lines headed by an entry give the natural chain unless they say otherwise; changes in a name come on top. Chains listed by the source or under a name are the forms on record and can include a tag or linker.
UniProt Q9NVH1: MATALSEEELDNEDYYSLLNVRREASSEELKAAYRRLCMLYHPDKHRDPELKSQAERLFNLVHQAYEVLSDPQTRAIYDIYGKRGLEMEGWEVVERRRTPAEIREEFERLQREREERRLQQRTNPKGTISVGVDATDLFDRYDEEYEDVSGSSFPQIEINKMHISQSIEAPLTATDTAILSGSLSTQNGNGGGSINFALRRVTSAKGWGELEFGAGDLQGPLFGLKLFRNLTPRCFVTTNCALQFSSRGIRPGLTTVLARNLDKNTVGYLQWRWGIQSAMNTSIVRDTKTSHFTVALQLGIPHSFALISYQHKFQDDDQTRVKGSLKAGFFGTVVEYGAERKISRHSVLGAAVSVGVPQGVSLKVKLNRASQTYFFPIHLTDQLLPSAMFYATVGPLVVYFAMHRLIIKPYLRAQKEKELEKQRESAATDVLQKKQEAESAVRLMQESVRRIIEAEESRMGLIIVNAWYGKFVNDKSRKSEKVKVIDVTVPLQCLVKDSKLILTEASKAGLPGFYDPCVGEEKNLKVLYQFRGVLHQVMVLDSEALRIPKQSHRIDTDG
Myc-tagged DNAJC11 mutant lacking aa 201 to 400 (Q9NVH1, form named): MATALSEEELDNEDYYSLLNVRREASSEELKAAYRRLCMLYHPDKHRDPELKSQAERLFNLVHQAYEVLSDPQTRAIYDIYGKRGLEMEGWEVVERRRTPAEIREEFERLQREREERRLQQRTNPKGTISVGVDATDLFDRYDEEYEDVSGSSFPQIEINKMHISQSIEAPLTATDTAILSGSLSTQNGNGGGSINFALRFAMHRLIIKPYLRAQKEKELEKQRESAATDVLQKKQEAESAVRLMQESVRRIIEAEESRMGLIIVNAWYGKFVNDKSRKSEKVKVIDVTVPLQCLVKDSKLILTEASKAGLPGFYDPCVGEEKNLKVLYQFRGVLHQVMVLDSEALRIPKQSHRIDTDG

target: GFP-tagged SARS-CoV-2 nonstructural protein 3 (NSP3) (SARS-CoV-2) (UniProt P0DTD1); test: co-IP

Substance	binding
Myc-tagged DNAJC11 mutant lacking aa 1 to 200 (from UniProt Q9NVH1 201-559) (domain or fragment)	no binding
Myc-tagged DNAJC11 mutant lacking aa 201 to 400 (from UniProt Q9NVH1 1-559)	binds
Myc-tagged DNAJC11 mutant lacking aa 401 to 560 (from UniProt Q9NVH1 1-400) (domain or fragment)	binds
